# Some of the results follow.
# Legend:
# Test in all cases: glycan array binding signal (z-score within array); higher = stronger binding
# Settings in all cases: glycan notation: IUPAC condensed, linker removed
# Fuc(a1-2)Gal = biological target: Fuc(a1-2)Gal
# Summary of the method: (§1)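 The binding signal is a Z-score computed within each array. Data were drawn from 3228 arrays in the Consortium for Functional Glycomics database, restricted to those with a known protein sequence. Scores were averaged over arrays of the same protein sequence at different concentrations or buffers, and over linkers, and negative values can be taken as non-binding.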
# Fuc(a1-2)Gal(b1-3)GalNAc = biological target: Fuc(a1-2)Gal(b1-3)GalNAc
# Summary of the method: as §1
# [1] = biological target: Fuc(a1-2)Gal(b1-3)GalNAc(a1-3)[Fuc(a1-2)]Gal(b1-4)Glc
# Summary of the method: as §1
# [2] = biological target: Fuc(a1-2)Gal(b1-3)GalNAc(a1-3)[Fuc(a1-2)]Gal(b1-4)GlcNAc
# Summary of the method: as §1
# [3] = biological target: Fuc(a1-2)Gal(b1-3)GalNAc(b1-3)Gal
# Summary of the method: as §1
# [4] = biological target: Fuc(a1-2)Gal(b1-3)GalNAc(b1-3)Gal(a1-4)Gal(b1-4)Glc
# Summary of the method: as §1
# [5] = biological target: Fuc(a1-2)Gal(b1-3)GalNAc(b1-4)[Neu5Ac(a2-3)]Gal(b1-4)Glc
# Summary of the method: as §1
# Fuc(a1-2)Gal(b1-3)GlcNAc = biological target: Fuc(a1-2)Gal(b1-3)GlcNAc
# Summary of the method: as §1
# [6] = biological target: Fuc(a1-2)Gal(b1-3)GlcNAc(b1-2)Man(a1-3)[Fuc(a1-2)Gal(b1-3)GlcNAc(b1-2)Man(a1-6)]Man(b1-4)GlcNAc(b1-4)GlcNAc
# Summary of the method: as §1
# [7] = biological target: Fuc(a1-2)Gal(b1-3)GlcNAc(b1-2)Man(a1-3)[Fuc(a1-2)Gal(b1-3)GlcNAc(b1-2)Man(a1-6)]Man(b1-4)GlcNAc(b1-4)[Fuc(a1-6)]GlcNAc
# Summary of the method: as §1
# [8] = biological target: Fuc(a1-2)Gal(b1-3)GlcNAc(b1-3)Gal(b1-4)Glc
# Summary of the method: as §1
# [9] = biological target: Fuc(a1-2)Gal(b1-3)GlcNAc(b1-3)GalNAc
# Summary of the method: as §1
# [10] = biological target: Fuc(a1-2)Gal(b1-3)GlcNAc(b1-3)[Fuc(a1-2)Gal(b1-3)GlcNAc(b1-6)]GalNAc
# Summary of the method: as §1
# [11] = biological target: Fuc(a1-2)Gal(b1-3)GlcNAc(b1-3)[Gal(b1-4)GlcNAc(b1-6)]Gal(b1-4)Glc
# Summary of the method: as §1
# [12] = biological target: Fuc(a1-2)Gal(b1-3)GlcNAc(b1-3)[Neu5Ac(a2-6)Gal(b1-4)GlcNAc(b1-6)]Gal(b1-4)Glc
# Summary of the method: as §1
# [13] = biological target: Fuc(a1-2)Gal(b1-3)GlcNAc6S
# Summary of the method: as §1
# [14] = biological target: Fuc(a1-2)Gal(b1-3)[Fuc(a1-4)]GlcNAc
# Summary of the method: as §1
# [15] = biological target: Fuc(a1-2)Gal(b1-3)[Fuc(a1-4)]GlcNAc(b1-2)Man(a1-3)[Fuc(a1-2)Gal(b1-3)[Fuc(a1-4)]GlcNAc(b1-2)Man(a1-3)]Man(b1-4)GlcNAc(b1-4)GlcNAc
# Summary of the method: as §1
# [16] = biological target: Fuc(a1-2)Gal(b1-3)[Fuc(a1-4)]GlcNAc(b1-2)Man(a1-3)[Fuc(a1-2)Gal(b1-3)[Fuc(a1-4)]GlcNAc(b1-2)Man(a1-6)]Man(b1-4)GlcNAc(b1-4)[Fuc(a1-6)]GlcNAc(b1-4)[Fuc(a1-6)]GlcNAc
# Summary of the method: as §1
# [17] = biological target: Fuc(a1-2)Gal(b1-3)[Fuc(a1-4)]GlcNAc(b1-3)[Fuc(a1-3)[Gal(b1-4)]GlcNAc(b1-6)]Gal(b1-4)Glc
# Summary of the method: as §1
# [18] = biological target: Fuc(a1-2)Gal(b1-3)[Fuc(a1-4)]GlcNAc(b1-3)[Gal(b1-4)GlcNAc(b1-6)]Gal(b1-4)Glc
# Summary of the method: as §1
# Fuc(a1-2)Gal(b1-4)Glc = biological target: Fuc(a1-2)Gal(b1-4)Glc
# Summary of the method: as §1
# Fuc(a1-2)Gal(b1-4)Glc6S = biological target: Fuc(a1-2)Gal(b1-4)Glc6S
# Summary of the method: as §1
# Fuc(a1-2)Gal(b1-4)GlcNAc = biological target: Fuc(a1-2)Gal(b1-4)GlcNAc
# Summary of the method: as §1
# [19] = biological target: Fuc(a1-2)Gal(b1-4)GlcNAc(b1-2)Man
# Summary of the method: as §1
# [20] = biological target: Fuc(a1-2)Gal(b1-4)GlcNAc(b1-2)Man(a1-3)[Fuc(a1-2)Gal(b1-4)GlcNAc(b1-2)Man(a1-6)]Man(b1-4)GlcNAc(b1-4)GlcNAc
# Summary of the method: as §1
# [21] = biological target: Fuc(a1-2)Gal(b1-4)GlcNAc(b1-2)Man(a1-3)[Fuc(a1-2)Gal(b1-4)GlcNAc(b1-2)Man(a1-6)]Man(b1-4)GlcNAc(b1-4)[Fuc(a1-6)]GlcNAc
# Summary of the method: as §1
# [22] = biological target: Fuc(a1-2)Gal(b1-4)GlcNAc(b1-2)[Fuc(a1-2)Gal(b1-4)GlcNAc(b1-4)]Man(a1-3)[Fuc(a1-2)Gal(b1-4)GlcNAc(b1-2)Man(a1-6)]Man(b1-4)GlcNAc(b1-4)GlcNAc
# Summary of the method: as §1
# [23] = biological target: Fuc(a1-2)Gal(b1-4)GlcNAc(b1-3)Gal(b1-4)GlcNAc
# Summary of the method: as §1
# [24] = biological target: Fuc(a1-2)Gal(b1-4)GlcNAc(b1-3)Gal(b1-4)GlcNAc(b1-2)Man(a1-3)[Fuc(a1-2)Gal(b1-4)GlcNAc(b1-3)Gal(b1-4)GlcNAc(b1-2)Man(a1-6)]Man(b1-4)GlcNAc(b1-4)GlcNAc
# Summary of the method: as §1
binder,measurement,setting,value
B1567 (Bifidobacterium sp) (protein) MKFTTAKKAVALTGAVAMLVSVAACGSDSGKSSQPAQDSDVKEITVWAWEPSLTQVAKDFEKETGIKVDLKNVGTNTKEYTQLDNAIEAGSGAPDVAQVEYYAVPQYAIKGNLLDITDKTSGYKDFYTPGPWASVQFAGKVYGLPMDSGPMAFFYNKEVFDKAGVDAEQIKTWDQYYDAAKKIHALGDNYYITSDTGDAGFFDSMTWLAGAKPFQTSSDGSEVTVNLTEDKGVKTFTDFWQKLLDEGLLDTKTAGWSEDWFKGMVDGTIASLFTGAWMPANLANSAADGAGKWRVTQMPTADGSTTNSENGGSSLAVLASTKKADAAYQFIEYANHGAGVATRVAGGAFPADKASLEKDSFKNATTVKNADGQDVDYFGGQKYNEVLAQAAENVSSGYQFLPFEVKARTIFGDYFGKSYTGDQKLSDGVAAWQKALQDYGKDQGFTVK,glycan array binding signal (z-score),Fuc(a1-2)Gal,-0.117
same,glycan array binding signal (z-score),Fuc(a1-2)Gal(b1-3)GalNAc,-0.135
same,glycan array binding signal (z-score),[1],-0.161
same,glycan array binding signal (z-score),[2],-0.097
same,glycan array binding signal (z-score),[3],-0.128
same,glycan array binding signal (z-score),[4],-0.037
same,glycan array binding signal (z-score),[5],-0.136
same,glycan array binding signal (z-score),Fuc(a1-2)Gal(b1-3)GlcNAc,-0.124
same,glycan array binding signal (z-score),[6],-0.156
same,glycan array binding signal (z-score),[7],-0.103
same,glycan array binding signal (z-score),[8],-0.125
same,glycan array binding signal (z-score),[9],-0.117
same,glycan array binding signal (z-score),[10],-0.125
same,glycan array binding signal (z-score),[11],-0.135
same,glycan array binding signal (z-score),[12],-0.108
same,glycan array binding signal (z-score),[13],-0.155
same,glycan array binding signal (z-score),[14],-0.003
same,glycan array binding signal (z-score),[15],-0.058
same,glycan array binding signal (z-score),[16],-0.08
same,glycan array binding signal (z-score),[17],-0.143
same,glycan array binding signal (z-score),[18],-0.027
same,glycan array binding signal (z-score),Fuc(a1-2)Gal(b1-4)Glc,-0.094
same,glycan array binding signal (z-score),Fuc(a1-2)Gal(b1-4)Glc6S,-0.184
same,glycan array binding signal (z-score),Fuc(a1-2)Gal(b1-4)GlcNAc,-0.101
same,glycan array binding signal (z-score),[19],-0.141
same,glycan array binding signal (z-score),[20],-0.116
same,glycan array binding signal (z-score),[21],-0.101
same,glycan array binding signal (z-score),[22],-0.052
same,glycan array binding signal (z-score),[23],-0.164
same,glycan array binding signal (z-score),[24],-0.015

# From the supplement of paper PMC8728848
